Laboratory results reported in the supplement of paper PMC10369915.
This is one part of the list. Rule as the data show it: active = 3.2 or more and inactive = the rest. Most of these values are background signal.

B1: IQGAP3_Y1098 (peptide)
chain: RSHLPYDVTPE
B2: INTS13_Y67_M66T_YF (peptide)
chain: FCRITYDIFPF
B3: IRF3_Y107 (peptide)
chain: DPHKIYEFVNS
B4: ITGA2B_Y197 (peptide)
chain: SWDKRYCEAGF
B5: IRF6_Y97_T100A (peptide)
chain: EFNLMYDGAKE
B6: IRF8_Y107 (peptide)
chain: DISEPYKVYRI
B7: IRF6_Y97 (peptide)
chain: EFNLMYDGTKE
B8: ITGA2B_Y265_G267E (peptide)
chain: EYFDGYWEYSV
B9: IQGAP2_Y890_T894I_YF (peptide)
chain: FQQLFYLLQIN
B10: IQGAP2_Y1445 (peptide)
chain: NYYDTYIKTCL
B11: IRF8_Y110_K108E_YF (peptide)
chain: EPFEVYRIVPE
B12: IRAK3_Y61 (peptide)
chain: RHIEKYVDQGK
B13: IQGAP2_Y1445_Y1445C_YF (peptide)
chain: NFFDTCIKTCL
B14: INSR_Y818 (peptide)
chain: RHFTGYRIELQ
B15: IRF8_Y110_YF (peptide)
chain: EPFKVYRIVPE
B16: IQGAP2_Y1445_Y1445C (peptide)
chain: NYYDTCIKTCL
B17: IPO5_Y530_E525K (peptide)
chain: KKFVPYYDLFM
B18: IQGAP2_Y890_YF (peptide)
chain: FQQLFYLLQTN
B19: INSR_Y818_Y818C (peptide)
chain: RHFTGCRIELQ
B20: INSR_Y87 (peptide)
chain: IMITDYLLLFR
B21: INTS13_Y67_M66T (peptide)
chain: YCRITYDIFPF
B22: INSR_Y999 (peptide)
chain: SSNPEYLSASD
B23: IRS1_Y47_YF (peptide)
chain: ARLEFYENEKK
B24: IRF8_Y110_K108E (peptide)
chain: EPYEVYRIVPE
B25: INTS13_Y67_YF (peptide)
chain: FCRIMYDIFPF
B26: IQGAP2_Y1445_YF (peptide)
chain: NFFDTYIKTCL
B27: IRS1_Y46_YF (peptide)
chain: PARLEYFENEK
B28: IPO4_Y518_A513V (peptide)
chain: VSLLPYFPAIM
B29: INSR_Y992_P997T (peptide)
chain: PLGPLYASSNT
B30: IQGAP2_Y630 (peptide)
chain: PESCLYKESWL
B31: IQGAP2_Y630_L635I (peptide)
chain: PESCLYKESWI
B32: ITGA2B_Y360 (peptide)
chain: EVGRVYLFLQP
B33: IRF2BPL_Y423 (peptide)
chain: KLFIEYPTGSG
B34: IRS1_Y47 (peptide)
chain: ARLEYYENEKK
B35: INSR_Y94_L89P (peptide)
chain: PLFRVYGLESL
B36: IQCF1_Y144_R141C (peptide)
chain: RICRRYCQVLN
B37: IRS1_Y896_S892G (peptide)
chain: KGPGEYVNIEF

What follows are binders tested against SHP2 C-SH2 domain E139D (assay: enrichment score (SH2-bound / input frequency) (ratio); bacterial display of known human phosphotyrosine sites (pTyr-Var adds point mutants) read by sequencing; higher = stronger binding; tyrosines were phosphorylated by kinases first). Settings: peptide library: pTyr-Var.
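Also: displayed peptides selected on beads carrying the immobilized SH2 domain, with library peptides lacking any tyrosine serving as negative controls.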

Row | Binder | enrichment score
1 | B1 | inactive: 0.695
2 | B2 | inactive: 0.983
3 | B3 | inactive: 1.1
4 | B4 | inactive: 0.56
5 | B5 | inactive: 0.89
6 | B6 | inactive: 0.55
7 | B7 | inactive: 0.822
8 | B8 | inactive: 1.1
9 | B9 | active: 3.89
10 | B10 | inactive: 0.954
11 | B11 | inactive: 0.904
12 | B12 | inactive: 1.19
13 | B13 | inactive: 2.32
14 | B14 | active: 3.39
15 | B15 | inactive: 0.776
16 | B16 | inactive: 2.03
17 | B17 | inactive: 2.48
18 | B18 | active: 3.54
19 | B19 | inactive: 1.78

Row | Binder | enrichment score
20 | B20 | inactive: 2.51
21 | B21 | inactive: 1.3
22 | B22 | inactive: 0.473
23 | B23 | inactive: 1.39
24 | B24 | inactive: 1.05
25 | B25 | inactive: 1.38
26 | B26 | inactive: 1.33
27 | B27 | inactive: 0.773
28 | B28 | inactive: 1.45
29 | B29 | inactive: 1.14
30 | B30 | inactive: 0.861
31 | B31 | inactive: 1.03
32 | B32 | inactive: 0.503
33 | B33 | inactive: 1.73
34 | B34 | inactive: 0.773
35 | B35 | inactive: 1.04
36 | B36 | inactive: 0.234
37 | B37 | inactive: 1.3

Each binder was assayed against SHP2 C-SH2 domain wild-type in the same assay as above. Settings: peptide library: pTyr-Var.

Row | Binder | enrichment score
38 | B1 | inactive: 0.617
39 | B2 | inactive: 1.34
40 | B3 | inactive: 0.778
41 | B4 | inactive: 0.607
42 | B5 | inactive: 0.78
43 | B6 | inactive: 0.572
44 | B7 | inactive: 0.748
45 | B8 | inactive: 1.7
46 | B9 | active: 3.37
47 | B10 | inactive: 1.17
48 | B11 | inactive: 0.622
49 | B12 | inactive: 1.29
50 | B13 | inactive: 2.29
51 | B14 | inactive: 3.1
52 | B15 | inactive: 0.708
53 | B16 | inactive: 1.88
54 | B17 | inactive: 2.2
55 | B18 | active: 3.23
56 | B19 | inactive: 1.67

Row | Binder | enrichment score
57 | B20 | inactive: 2.51
58 | B21 | inactive: 1.52
59 | B22 | inactive: 0.394
60 | B23 | inactive: 1.19
61 | B24 | inactive: 0.944
62 | B25 | inactive: 1.33
63 | B26 | inactive: 1.61
64 | B27 | inactive: 0.667
65 | B28 | inactive: 1.51
66 | B29 | inactive: 1.01
67 | B30 | inactive: 0.817
68 | B31 | inactive: 1.19
69 | B32 | inactive: 0.662
70 | B33 | inactive: 1.54
71 | B34 | inactive: 0.893
72 | B35 | inactive: 1.16
73 | B36 | inactive: 0.236
74 | B37 | inactive: 1.6

The binders below were run against SHP2 N-SH2 domain L43F in the same assay as above. Settings: peptide library: pTyr-Var.

Row | Binder | enrichment score
75 | B1 | inactive: 0.605
76 | B2 | inactive: 1.02
77 | B3 | inactive: 0.787
78 | B4 | inactive: 0.604
79 | B5 | inactive: 0.777
80 | B6 | inactive: 0.35
81 | B7 | inactive: 0.925
82 | B8 | inactive: 1.42
83 | B9 | active: 3.65
84 | B10 | inactive: 0.954
85 | B11 | inactive: 0.792
86 | B12 | inactive: 1.32
87 | B13 | inactive: 2.46
88 | B14 | active: 3.57
89 | B15 | inactive: 0.877
90 | B16 | inactive: 1.59
91 | B17 | inactive: 2.17
92 | B18 | active: 3.69
93 | B19 | inactive: 1.3

Row | Binder | enrichment score
94 | B20 | inactive: 2.4
95 | B21 | inactive: 1.25
96 | B22 | inactive: 0.452
97 | B23 | inactive: 1.34
98 | B24 | inactive: 1.05
99 | B25 | inactive: 1.15
100 | B26 | inactive: 1.39
101 | B27 | inactive: 0.872
102 | B28 | inactive: 1.58
103 | B29 | inactive: 0.904
104 | B30 | inactive: 0.94
105 | B31 | inactive: 0.833
106 | B32 | inactive: 0.664
107 | B33 | inactive: 1.33
108 | B34 | inactive: 0.885
109 | B35 | inactive: 1.25
110 | B36 | inactive: 0.189
111 | B37 | active: 3.65

What follows are binders tested against SHP2 N-SH2 domain T42A in the same assay as above. Settings: peptide library: pTyr-Var.

Row | Binder | enrichment score
112 | B1 | inactive: 0.679
113 | B2 | inactive: 1.11
114 | B3 | inactive: 0.673
115 | B4 | inactive: 0.682
116 | B5 | inactive: 0.746
117 | B6 | inactive: 0.634
118 | B7 | inactive: 0.751
119 | B8 | inactive: 1.21
120 | B9 | inactive: 2.94
121 | B10 | inactive: 0.722
122 | B11 | inactive: 0.636
123 | B12 | inactive: 1.12
124 | B13 | inactive: 2.16
125 | B14 | inactive: 2.81
126 | B15 | inactive: 0.735
127 | B16 | inactive: 1.74
128 | B17 | inactive: 2.37
129 | B18 | inactive: 3.2
130 | B19 | inactive: 1.25

Row | Binder | enrichment score
131 | B20 | inactive: 1.88
132 | B21 | inactive: 1.63
133 | B22 | inactive: 0.474
134 | B23 | inactive: 1.32
135 | B24 | inactive: 0.811
136 | B25 | inactive: 1.11
137 | B26 | inactive: 1.35
138 | B27 | inactive: 0.913
139 | B28 | inactive: 1.36
140 | B29 | inactive: 0.672
141 | B30 | inactive: 0.805
142 | B31 | inactive: 0.929
143 | B32 | inactive: 0.578
144 | B33 | inactive: 1.22
145 | B34 | inactive: 0.738
146 | B35 | inactive: 0.935
147 | B36 | inactive: 0.188
148 | B37 | active: 5.32

What follows are binders tested against SHP2 N-SH2 domain T52S in the same assay as above. Settings: peptide library: pTyr-Var.

Row | Binder | enrichment score
149 | B1 | inactive: 0.623
150 | B2 | inactive: 1.19
151 | B3 | inactive: 0.788
152 | B4 | inactive: 0.67
153 | B5 | inactive: 0.696
154 | B6 | inactive: 0.713
155 | B7 | inactive: 0.82
156 | B8 | inactive: 0.901
157 | B9 | active: 3.46
158 | B10 | inactive: 0.853
159 | B11 | inactive: 0.874
160 | B12 | inactive: 1.02
161 | B13 | inactive: 2.63
162 | B14 | active: 3.4
163 | B15 | inactive: 0.858
164 | B16 | inactive: 1.98
165 | B17 | inactive: 2.36
166 | B18 | inactive: 3.12
167 | B19 | inactive: 1.6

Row | Binder | enrichment score
168 | B20 | inactive: 2.27
169 | B21 | inactive: 0.995
170 | B22 | inactive: 0.415
171 | B23 | inactive: 1.1
172 | B24 | inactive: 0.961
173 | B25 | inactive: 1.42
174 | B26 | inactive: 1.24
175 | B27 | inactive: 0.972
176 | B28 | inactive: 1.61
177 | B29 | inactive: 0.728
178 | B30 | inactive: 0.604
179 | B31 | inactive: 0.943
180 | B32 | inactive: 0.626
181 | B33 | inactive: 1.69
182 | B34 | inactive: 0.868
183 | B35 | inactive: 0.908
184 | B36 | inactive: 0.233
185 | B37 | active: 4.3

These binders were tested against SHP2 N-SH2 domain wild-type in the same assay as above. Settings: peptide library: pTyr-Var.

Row | Binder | enrichment score
186 | B1 | inactive: 0.765
187 | B2 | inactive: 1.8
188 | B3 | inactive: 0.92
189 | B4 | inactive: 0.509
190 | B5 | inactive: 0.83
191 | B6 | inactive: 0.591
192 | B7 | inactive: 0.845
193 | B8 | inactive: 1.35
194 | B9 | active: 3.77
195 | B10 | inactive: 1.41
196 | B11 | inactive: 0.642
197 | B12 | inactive: 1.13
198 | B13 | inactive: 2.04
199 | B14 | active: 3.39
200 | B15 | inactive: 0.829
201 | B16 | inactive: 1.93
202 | B17 | inactive: 2.15
203 | B18 | active: 3.21
204 | B19 | inactive: 1.53

Row | Binder | enrichment score
205 | B20 | inactive: 2.52
206 | B21 | inactive: 1.6
207 | B22 | inactive: 0.534
208 | B23 | inactive: 0.927
209 | B24 | inactive: 0.868
210 | B25 | inactive: 1.66
211 | B26 | inactive: 1.51
212 | B27 | inactive: 0.9
213 | B28 | inactive: 1.78
214 | B29 | inactive: 0.807
215 | B30 | inactive: 0.914
216 | B31 | inactive: 1.36
217 | B32 | inactive: 1.05
218 | B33 | inactive: 1.58
219 | B34 | inactive: 0.882
220 | B35 | inactive: 0.801
221 | B36 | inactive: 0.166
222 | B37 | inactive: 1.23
